# In the supplement of paper PMC8728848:
# The list shows a part of the results.
# B1: MGL6A (Homo sapiens) (protein)
# chain: MTRTYENFQYLENKVKVQGFKNGPLPLQSLLQRLCSGPCHLLLSLGLGLLLLVIICVVGFQNSKFQRDLVTLRTDFSNFTSNTVAEIQALTSQGSSLEETIASLKAEVEGFKQERQAVHSEMLLRVQQLVQDLKKLTCQVATLNNNGEEASTEGTCCPVNWVEHQDSCYWFSHSGMSWAEAEKYCQLKNAHLVVINSREEQNFVQKYLGSAYTWMGLSDPEGAWKWVDGTDYATGFQNWKPGQPDDWQGHGLGGGEDCAHFTPDGRWNDDVCQRPYHWVCEAGLGQTSQESH
# Key:
# Experiment in all cases: glycan array binding signal (z-score within array); higher = stronger binding
# Settings in all cases: glycan notation: IUPAC condensed, linker removed; mutation: H262T
# [1] = target: Fuc(a1-2)Gal(b1-4)[Fuc(a1-3)]GlcNAc
# Method in brief: (§1)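 Negative Z-scores can be read as non-binding. The Z-score is calculated within each array and then averaged across arrays of one protein sequence at different concentrations or buffers and across linkers. Arrays, 3228 in all, were curated from the Consortium for Functional Glycomics database and kept only where the protein sequence was available.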
# [2] = target: Fuc(a1-2)Gal(b1-4)[Fuc(a1-3)]GlcNAc(b1-2)Man(a1-3)[Fuc(a1-2)Gal(b1-4)[Fuc(a1-3)]GlcNAc(b1-2)Man(a1-6)]Man(b1-4)GlcNAc(b1-4)[Fuc(a1-6)]GlcNAc
# Method in brief: as §1
# [3] = target: Fuc(a1-2)Gal(b1-4)[Fuc(a1-3)]GlcNAc(b1-2)[Fuc(a1-2)Gal(b1-4)[Fuc(a1-3)]GlcNAc(b1-4)]Man(a1-3)[Fuc(a1-2)Gal(b1-4)[Fuc(a1-3)]GlcNAc(b1-2)Man(a1-6)]Man(b1-4)GlcNAc(b1-4)GlcNAc
# Method in brief: as §1
# [4] = target: Fuc(a1-2)Gal(b1-4)[Fuc(a1-3)]GlcNAc(b1-3)Gal(b1-4)[Fuc(a1-3)]GlcNAc
# Method in brief: as §1
# [5] = target: Fuc(a1-2)Gal(b1-4)[Fuc(a1-3)]GlcNAc(b1-3)Gal(b1-4)[Fuc(a1-3)]GlcNAc(b1-3)Gal(b1-4)[Fuc(a1-3)]GlcNAc
# Method in brief: as §1
# [6] = target: Fuc(a1-2)Gal(b1-4)[Fuc(a1-3)]GlcNAc(b1-3)GalNAc
# Method in brief: as §1
# [7] = target: Fuc(a1-2)Gal(b1-4)[Fuc(a1-3)]GlcNAc(b1-3)[Neu5Ac(a2-6)Gal(b1-4)GlcNAc(b1-6)]Gal(b1-4)Glc
# Method in brief: as §1
# [8] = target: Fuc(a1-2)Gal3S(b1-4)GlcNAc
# Method in brief: as §1
# [9] = target: Fuc(a1-2)Gal6S(b1-3)GlcNAc
# Method in brief: as §1
# [10] = target: Fuc(a1-2)Gal6S(b1-3)GlcNAc6S
# Method in brief: as §1
# Fuc(a1-2)Gal6S(b1-4)Glc = target: Fuc(a1-2)Gal6S(b1-4)Glc
# Method in brief: as §1
# [11] = target: Fuc(a1-2)Gal6S(b1-4)Glc6S
# Method in brief: as §1
# Fuc(a1-2)[Gal(a1-3)]Gal = target: Fuc(a1-2)[Gal(a1-3)]Gal
# Method in brief: as §1
# [12] = target: Fuc(a1-2)[Gal(a1-3)]Gal(b1-3)GalNAc
# Method in brief: as §1
# [13] = target: Fuc(a1-2)[Gal(a1-3)]Gal(b1-3)GalNAc(b1-3)Gal(a1-4)Gal(b1-4)Glc
# Method in brief: as §1
# [14] = target: Fuc(a1-2)[Gal(a1-3)]Gal(b1-3)GlcNAc
# Method in brief: as §1
# [15] = target: Fuc(a1-2)[Gal(a1-3)]Gal(b1-3)GlcNAc(b1-2)Man(a1-3)[Fuc(a1-2)[Gal(a1-3)]Gal(b1-3)GlcNAc(b1-2)Man(a1-6)]Man(b1-4)GlcNAc(b1-4)GlcNAc
# Method in brief: as §1
# [16] = target: Fuc(a1-2)[Gal(a1-3)]Gal(b1-3)GlcNAc(b1-2)Man(a1-3)[Fuc(a1-2)[Gal(a1-3)]Gal(b1-3)GlcNAc(b1-2)Man(a1-6)]Man(b1-4)GlcNAc(b1-4)[Fuc(a1-6)]GlcNAc
# Method in brief: as §1
# [17] = target: Fuc(a1-2)[Gal(a1-3)]Gal(b1-3)GlcNAc(b1-3)GalNAc
# Method in brief: as §1
# [18] = target: Fuc(a1-2)[Gal(a1-3)]Gal(b1-3)GlcNAc(b1-6)GalNAc
# Method in brief: as §1
# [19] = target: Fuc(a1-2)[Gal(a1-3)]Gal(b1-4)Glc
# Method in brief: as §1
# [20] = target: Fuc(a1-2)[Gal(a1-3)]Gal(b1-4)GlcNAc
# Method in brief: as §1
# [21] = target: Fuc(a1-2)[Gal(a1-3)]Gal(b1-4)GlcNAc(b1-2)Man
# Method in brief: as §1
# [22] = target: Fuc(a1-2)[Gal(a1-3)]Gal(b1-4)GlcNAc(b1-2)Man(a1-3)[Fuc(a1-2)[Gal(a1-3)]Gal(b1-4)GlcNAc(b1-2)Man(a1-6)]Man(b1-4)GlcNAc(b1-4)GlcNAc
# Method in brief: as §1
# [23] = target: Fuc(a1-2)[Gal(a1-3)]Gal(b1-4)GlcNAc(b1-2)Man(a1-3)[Fuc(a1-2)[Gal(a1-3)]Gal(b1-4)GlcNAc(b1-2)Man(a1-6)]Man(b1-4)GlcNAc(b1-4)[Fuc(a1-6)]GlcNAc
# Method in brief: as §1
# [24] = target: Fuc(a1-2)[Gal(a1-3)]Gal(b1-4)GlcNAc(b1-3)GalNAc
# Method in brief: as §1
# [25] = target: Fuc(a1-2)[Gal(a1-3)]Gal(b1-4)GlcNAc(b1-3)[Fuc(a1-2)[Gal(a1-3)]Gal(b1-4)GlcNAc(b1-6)]GalNAc
# Method in brief: as §1
# [26] = target: Fuc(a1-2)[Gal(a1-3)]Gal(b1-4)GlcNAc(b1-6)GalNAc
# Method in brief: as §1
# [27] = target: Fuc(a1-2)[Gal(a1-3)]Gal(b1-4)[Fuc(a1-3)]Glc
# Method in brief: as §1
# [28] = target: Fuc(a1-2)[Gal(a1-3)]Gal(b1-4)[Fuc(a1-3)]GlcNAc
# Method in brief: as §1
# [29] = target: Fuc(a1-2)[Gal(a1-3)]Gal(b1-4)[Fuc(a1-3)]GlcNAc(b1-3)GalNAc
# Method in brief: as §1
# [30] = target: Fuc(a1-2)[Gal(a1-4)]Gal(b1-4)GlcNAc
# Method in brief: as §1
# [31] = target: Fuc(a1-2)[GalNAc(a1-3)]Gal
# Method in brief: as §1
# [32] = target: Fuc(a1-2)[GalNAc(a1-3)]Gal(b1-3)GalNAc(a1-3)[Fuc(a1-2)]Gal(b1-4)GlcNAc
# Method in brief: as §1
# [33] = target: Fuc(a1-2)[GalNAc(a1-3)]Gal(b1-3)GalNAc(b1-3)Gal(a1-4)Gal(b1-4)Glc
# Method in brief: as §1
# [34] = target: Fuc(a1-2)[GalNAc(a1-3)]Gal(b1-3)GlcNAc
# Method in brief: as §1
# [35] = target: Fuc(a1-2)[GalNAc(a1-3)]Gal(b1-3)GlcNAc(b1-2)Man(a1-3)[Fuc(a1-2)[GalNAc(a1-3)]Gal(b1-3)GlcNAc(b1-2)Man(a1-6)]Man(b1-4)GlcNAc(b1-4)GlcNAc
# Method in brief: as §1
# [36] = target: Fuc(a1-2)[GalNAc(a1-3)]Gal(b1-3)GlcNAc(b1-2)Man(a1-3)[Fuc(a1-2)[GalNAc(a1-3)]Gal(b1-3)GlcNAc(b1-2)Man(a1-6)]Man(b1-4)GlcNAc(b1-4)[Fuc(a1-6)]GlcNAc
# Method in brief: as §1
binder,measurement,setting,value
B1,glycan array binding signal (z-score),[1],-0.177
same,glycan array binding signal (z-score),[2],-0.172
same,glycan array binding signal (z-score),[3],-0.168
same,glycan array binding signal (z-score),[4],-0.172
same,glycan array binding signal (z-score),[5],-0.171
same,glycan array binding signal (z-score),[6],-0.165
same,glycan array binding signal (z-score),[7],-0.171
same,glycan array binding signal (z-score),[8],-0.177
same,glycan array binding signal (z-score),[9],-0.175
same,glycan array binding signal (z-score),[10],-0.154
same,glycan array binding signal (z-score),Fuc(a1-2)Gal6S(b1-4)Glc,-0.173
same,glycan array binding signal (z-score),[11],-0.179
same,glycan array binding signal (z-score),Fuc(a1-2)[Gal(a1-3)]Gal,-0.171
same,glycan array binding signal (z-score),[12],-0.175
same,glycan array binding signal (z-score),[13],-0.172
same,glycan array binding signal (z-score),[14],-0.172
same,glycan array binding signal (z-score),[15],-0.176
same,glycan array binding signal (z-score),[16],-0.175
same,glycan array binding signal (z-score),[17],-0.174
same,glycan array binding signal (z-score),[18],2.7
same,glycan array binding signal (z-score),[19],-0.172
same,glycan array binding signal (z-score),[20],-0.17
same,glycan array binding signal (z-score),[21],-0.177
same,glycan array binding signal (z-score),[22],-0.165
same,glycan array binding signal (z-score),[23],-0.171
same,glycan array binding signal (z-score),[24],-0.176
same,glycan array binding signal (z-score),[25],-0.163
same,glycan array binding signal (z-score),[26],-0.177
same,glycan array binding signal (z-score),[27],-0.177
same,glycan array binding signal (z-score),[28],-0.178
same,glycan array binding signal (z-score),[29],-0.176
same,glycan array binding signal (z-score),[30],-0.166
same,glycan array binding signal (z-score),[31],-0.163
same,glycan array binding signal (z-score),[32],-0.171
same,glycan array binding signal (z-score),[33],-0.177
same,glycan array binding signal (z-score),[34],-0.173
same,glycan array binding signal (z-score),[35],-0.172
same,glycan array binding signal (z-score),[36],-0.186
